# Data reported in the supplement of paper PMC8728848.
# Some of the results follow.
# Legend:
# Assay in all cases: glycan array binding signal (z-score within array); higher = stronger binding
# Settings in all cases: glycan notation: IUPAC condensed, linker removed
# [1] = target: Neu5Ac(a2-6)Gal(b1-4)GlcNAc(b1-2)Man(a1-6)[Man(a1-3)]Man(b1-4)GlcNAc(b1-4)GlcNAc
# Procedure, shortened: (§1)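 From the Consortium for Functional Glycomics database, 3228 arrays were curated, keeping only those whose protein sequence was available. Binding is given as a within-array Z-score averaged across arrays sharing a protein sequence and across linkers. Negative Z-scores can be read as non-binding.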
# [2] = target: Neu5Ac(a2-6)Gal(b1-4)GlcNAc(b1-2)[Neu5Ac(a2-6)Gal(b1-4)GlcNAc(b1-4)]Man(a1-3)[GlcNAc(b1-4)][Neu5Ac(a2-6)Gal(b1-4)GlcNAc(b1-2)[Neu5Ac(a2-6)Gal(b1-4)GlcNAc(b1-6)]Man(a1-6)]Man(b1-4)GlcNAc(b1-4)GlcNAc
# Procedure, shortened: as §1
# [3] = target: Neu5Ac(a2-6)Gal(b1-4)GlcNAc(b1-2)[Neu5Ac(a2-6)Gal(b1-4)GlcNAc(b1-4)]Man(a1-3)[GlcNAc(b1-4)][Neu5Ac(a2-6)Gal(b1-4)GlcNAc(b1-4)Man(a1-6)]Man(b1-4)GlcNAc(b1-4)GlcNAc
# Procedure, shortened: as §1
# [4] = target: Neu5Ac(a2-6)Gal(b1-4)GlcNAc(b1-2)[Neu5Ac(a2-6)Gal(b1-4)GlcNAc(b1-6)]Man(a1-6)[Neu5Ac(a2-6)Gal(b1-4)GlcNAc(b1-2)Man(a1-3)][GlcNAc(b1-4)]Man(b1-4)GlcNAc(b1-4)GlcNAc
# Procedure, shortened: as §1
# [5] = target: Neu5Ac(a2-6)Gal(b1-4)GlcNAc(b1-3)Gal(b1-3)GlcNAc
# Procedure, shortened: as §1
# [6] = target: Neu5Ac(a2-6)Gal(b1-4)GlcNAc(b1-3)Gal(b1-4)GlcNAc
# Procedure, shortened: as §1
# [7] = target: Neu5Ac(a2-6)Gal(b1-4)GlcNAc(b1-3)Gal(b1-4)GlcNAc(b1-2)Man(a1-3)[Neu5Ac(a2-6)Gal(b1-4)GlcNAc(b1-3)Gal(b1-4)GlcNAc(b1-2)Man(a1-6)]GalNAc
# Procedure, shortened: as §1
# [8] = target: Neu5Ac(a2-6)Gal(b1-4)GlcNAc(b1-3)Gal(b1-4)GlcNAc(b1-3)Gal(b1-4)GlcNAc
# Procedure, shortened: as §1
# [9] = target: Neu5Ac(a2-6)Gal(b1-4)GlcNAc(b1-3)Gal(b1-4)GlcNAc(b1-3)Gal(b1-4)GlcNAc(b1-2)Man(a1-3)[Neu5Ac(a2-6)Gal(b1-4)GlcNAc(b1-3)Gal(b1-4)GlcNAc(b1-3)Gal(b1-4)GlcNAc(b1-2)Man(a1-6)]GalNAc
# Procedure, shortened: as §1
# [10] = target: Neu5Ac(a2-6)Gal(b1-4)GlcNAc(b1-3)Gal(b1-4)GlcNAc(b1-3)GalNAc
# Procedure, shortened: as §1
# [11] = target: Neu5Ac(a2-6)Gal(b1-4)GlcNAc(b1-3)Gal(b1-4)GlcNAc(b1-3)[Neu5Ac(a2-6)Gal(b1-4)GlcNAc(b1-3)Gal(b1-4)GlcNAc(b1-6)]GalNAc
# Procedure, shortened: as §1
# [12] = target: Neu5Ac(a2-6)Gal(b1-4)GlcNAc(b1-3)Gal(b1-4)GlcNAc(b1-6)[Gal(b1-3)]GalNAc
# Procedure, shortened: as §1
# [13] = target: Neu5Ac(a2-6)Gal(b1-4)GlcNAc(b1-3)Gal(b1-4)[Fuc(a1-3)]GlcNAc(b1-3)Gal(b1-4)[Fuc(a1-3)]GlcNAc
# Procedure, shortened: as §1
# [14] = target: Neu5Ac(a2-6)Gal(b1-4)GlcNAc(b1-3)GalNAc
# Procedure, shortened: as §1
# [15] = target: Neu5Ac(a2-6)Gal(b1-4)GlcNAc(b1-3)[Neu5Ac(a2-6)Gal(b1-4)GlcNAc(b1-6)]GalNAc
# Procedure, shortened: as §1
# [16] = target: Neu5Ac(a2-6)Gal(b1-4)GlcNAc(b1-6)GalNAc
# Procedure, shortened: as §1
# [17] = target: Neu5Ac(a2-6)Gal(b1-4)GlcNAc(b1-6)[Gal(b1-3)GlcNAc(b1-3)]Gal(b1-4)Glc
# Procedure, shortened: as §1
# [18] = target: Neu5Ac(a2-6)Gal(b1-4)GlcNAc(b1-6)[Gal(b1-3)]GalNAc
# Procedure, shortened: as §1
# [19] = target: Neu5Ac(a2-6)Gal(b1-4)GlcNAc6S
# Procedure, shortened: as §1
# [20] = target: Neu5Ac(a2-6)GalNAc
# Procedure, shortened: as §1
# [21] = target: Neu5Ac(a2-6)GalNAc(b1-4)GlcNAc
# Procedure, shortened: as §1
# [22] = target: Neu5Ac(a2-6)GalNAc(b1-4)GlcNAc6S
# Procedure, shortened: as §1
# [23] = target: Neu5Ac(a2-6)GlcNAc(b1-4)GlcNAc
# Procedure, shortened: as §1
binder,measurement,setting,value
rEtpA (Escherichia coli) (protein) MNRIYKLKFDKRRNELVVVSEITTGVGNAKATGSVEGEKSPRRGVRAMALSLLSGMMIMAHPAMSANLPTGGQIVAGSGSIQTPSGNQMNIHQNSQNMVANWNSFDIGKGNTVQFDQPSSSAVALNRVVGGGESQIMGNLKANGQVFLVNPNGVLFGEGASVSTSGFVASTRDIKNDDFMNRRYTFSGGQKAGAAIVNQGELTTNAGGYIVLAADRVSNSGTIRTPGGKTVLAASERITLQLDNGGLMSVQVTGDVVNALVENRGLVSARDGQVYLTALGRGMLMNTVLNVSGVVEASGMHRQDGNIVLDGGDSGVVHLSGTLQADNASGQGGKVVVQGKNILLDKGSNITATGGQGGGEVYVGGGWQGKDSNIRNADKVVMQGGARIDVSATQQGNGGTAVLWSDSYTNFHGQISAKGGETGGNGGRVETSSHGNLQAFGTVSASAKKGKAGNWLLDSADITIVNGSNVSKTETTQSPPHTQFAPTAAGSAVSNTSINNRLNNGTSVTILTHRTRTGTAQGGNITVNAAINKSNGSDVNLTLQAGGNITVNNSITSTEGKLNVNLSGARTSNGSITISNNANITTNGGDITVGTTNTSNRVNISINNTTLNASNGNIQLTGTGTDSGILFAGNNRLTASNIALTGNSTSGNAINLTGTATLNATNNITLTGSSTSGNAINLKGNNTLTASNITLTGESTSGNAINLTDTTGTTTLNATNNITMQGTRVQIKHSNITAGNFALNATVAGSEISNTTLTATNNINLAAKTNSASSGVYLKDARITSTNGSITANGTATANGKATHLDGNVTLNASNGRIKLTGNGHGSASGILFAGNNRLTASNIALTGNSTSGNAINLTGTATLNATNDITLTGSSTSGNAINLTGTATLNATNNITLTGSSTSGNAINLKGNNTLTASNITLTGESTSGNAINLTDTTGTTTLNATNNITMQGTRVQIKHSNITAGNFALNATVAGSEISNTTLTATNNINLAAKTNSASSGVYLKDARITSTNGSITANGTATANGKATHLDGNVTLNASNGRIKLTGNGHGSASGILFAGNNRLTASNIALTGNSTSGNAINLTGTATLNATNDITLTGSSTSGNAINLTGTATLNATNNITLTGSSTSGNAINLKGNNTLTASNITLTGESTSGNAINLTDTTGTTTLNATNNITMQGTRVQIKHSNITAGNFALNATVAGSEISNTTLTATNNINLAAKTNSASSGVYLKDARITSTNGSITANGTATANGKATHLDGNVTLNASNGRIKLTGNGHGSASGILFAGNNRLTASNIALTGNSTSGNAINLTGTATLNATNDITLTGSSTSGNAINLTGTATLNATNNITLTGSSTSGNAINLKGNNTLTASNITLTGESTSGNAINLTDTTGTTTLNATNNITMQGTRVQIKHSNITAGNFALNATVAGSEISNTTLTATNNINLAAKTNSASSGVYLKDARITSTNGSITTNGTATANGKATHLDGNVTLNASNGRIKLTGNGHGSASGILFAGNNRLTASNIALTGNSTSGNAINLTGTATLNATNDITLTGSSTSGNAINLTGTATLNATNNITLTGSSTSGNAINLKGNNTLTASNITLTGESTSGNAINLTDTTGTTTLNATNNITMQGTRVQIKHSNITAGNFALNATVAGSEISNTTLTATNNINLAAKTNSASSGVYLKDARITSTNGSITANGTAPANDNATYLDGNVTLNASNGSIKLTGNGNGSTSGILFAGNNTLTASNITLTGNSEVYWQKLGPEQKLISEEDLNSAVDHHHHHH,glycan array binding signal (z-score),[1],-0.06
same,glycan array binding signal (z-score),[2],-0.271
same,glycan array binding signal (z-score),[3],-0.063
same,glycan array binding signal (z-score),[4],-0.021
same,glycan array binding signal (z-score),[5],-0.361
same,glycan array binding signal (z-score),[6],-0.418
same,glycan array binding signal (z-score),[7],-0.38
same,glycan array binding signal (z-score),[8],-0.428
same,glycan array binding signal (z-score),[9],-0.152
same,glycan array binding signal (z-score),[10],-0.379
same,glycan array binding signal (z-score),[11],-0.373
same,glycan array binding signal (z-score),[12],-0.333
same,glycan array binding signal (z-score),[13],-0.276
same,glycan array binding signal (z-score),[14],-0.267
same,glycan array binding signal (z-score),[15],-0.153
same,glycan array binding signal (z-score),[16],-0.19
same,glycan array binding signal (z-score),[17],-0.399
same,glycan array binding signal (z-score),[18],-0.332
same,glycan array binding signal (z-score),[19],-0.451
same,glycan array binding signal (z-score),[20],-0.37
same,glycan array binding signal (z-score),[21],-0.424
same,glycan array binding signal (z-score),[22],-0.282
same,glycan array binding signal (z-score),[23],-0.251
